# In paper PMC6919601, “Identification of Plasmodium dipeptidyl aminopeptidase allosteric inhibitors by high throughput screening” (PLoS ONE, 2019):
# Screen size: about 110,000 compounds; about 230 (0.21%) showed an effect of 50% or more. Some of the results follow.
# Target: DPAP1 (Plasmodium falciparum, UniProt Q8IIJ9)
# Assay: primary screen, percent inhibition; read by cleavage of a fluorogenic dipeptide substrate; higher = more effect of the substance
# Set-up: species or system P. falciparum D10 trophozoite lysates; single well
# 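Further: 30 min substrate incubation versus DMSO and 10 µM JCP410 controls.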
# Sequence of DPAP1 (Q8IIJ9 whole entry, looked up): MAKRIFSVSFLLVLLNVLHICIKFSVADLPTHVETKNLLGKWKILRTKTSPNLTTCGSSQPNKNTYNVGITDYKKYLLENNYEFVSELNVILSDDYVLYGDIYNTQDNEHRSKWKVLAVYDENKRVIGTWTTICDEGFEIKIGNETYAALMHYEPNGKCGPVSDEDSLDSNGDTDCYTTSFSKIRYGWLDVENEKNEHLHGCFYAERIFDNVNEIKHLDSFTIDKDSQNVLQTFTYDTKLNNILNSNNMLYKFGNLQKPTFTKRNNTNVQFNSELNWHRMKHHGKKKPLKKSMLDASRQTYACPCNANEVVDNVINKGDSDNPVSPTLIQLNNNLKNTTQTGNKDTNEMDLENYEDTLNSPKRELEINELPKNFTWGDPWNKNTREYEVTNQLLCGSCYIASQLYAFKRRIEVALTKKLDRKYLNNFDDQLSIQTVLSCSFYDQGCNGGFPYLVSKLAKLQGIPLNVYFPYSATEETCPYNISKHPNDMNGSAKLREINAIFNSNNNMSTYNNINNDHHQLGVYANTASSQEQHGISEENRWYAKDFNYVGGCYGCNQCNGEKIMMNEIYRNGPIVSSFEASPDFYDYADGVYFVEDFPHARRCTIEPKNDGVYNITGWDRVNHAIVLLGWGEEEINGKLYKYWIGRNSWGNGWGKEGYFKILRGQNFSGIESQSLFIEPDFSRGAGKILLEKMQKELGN
row,SMILES,% Inhibition @ 10 uM [%]
1,CCSC1=C(C#N)C(c2ccccc2OC)CC(=O)N1 (centres unmarked),2.67
2,Cc1nn(CC(=O)NCCC2=CCCCC2)c(=O)c2cccn12,0.697
3,CCc1nc2cccnc2n1-c1ccc(CC(=O)NCCOC)cc1,-4.03
4,COc1ccc2[nH]c3c(=O)n(CCCCCC(=O)NCc4ccc(F)cc4)c(=S)[nH]c3c2c1,-2.16
5,Cc1cccc(NC(=O)CCc2nnc3ccc(N4CCN(C)CC4)nn23)n1,4.8
6,Cc1c(C(=O)N2CCN(C)CC2)oc2c1-c1nn(Cc3ccc(Cl)cc3)cc1CC2,-9.66
7,CCCCOc1ccc(N2C(=O)c3ccccc3C2=O)cc1,-0.28
8,CC1CCc2nn(CC(=O)NCCC3=CCCCC3)cc2C1 (centres unmarked),3.4
9,CCC(=O)Nc1sc(C(=O)N(CC)CC)c(C)c1C(N)=O,22.7
10,CSc1nc(-c2ccccc2)nc(SC)c1C(C)=O,-0.351
11,COc1cccc2cc(C(=O)N3CCC(C)CC3)c(=O)oc12,5.88
12,COc1ccc(CC(=O)Nc2c(C(=O)NC(C)(C)C)oc3ccccc23)cc1,1.06
13,Cc1cccc(S(=O)Cc2ccc(C(=O)N3CCN(C(=O)c4ccco4)CC3)o2)c1 (centres unmarked),1.77
14,CCN1CCN(CCNC(=O)CS(=O)(=O)Cc2nc(-c3ccc(C)cc3)oc2C)CC1,-2.11
15,CCOc1ccc(CCNC(=O)c2cc3oc4ccccc4c3n2C)cc1OCC,-0.447
16,CN(C)CN1C(=O)S/C(=C\c2ccc3c(c2)OCO3)C1=O,1.27
17,Cc1cc(C)c(O)c(NC(=O)COc2cccc(C)c2C)c1,-2.74
18,O=C1CC(NCCc2ccccc2)C(=O)N1c1ccccc1C(F)(F)F (centres unmarked),-7.81
19,CCN(CC)C(=O)CSc1nc(-c2ccccc2)nc2c1Cc1ccccc1O2,0.44
20,COc1ccc2oc(=O)cc(CN3CCN(C(=O)c4ccccc4C)CC3)c2c1,3.88
21,CCOc1ccccc1NC(=O)c1ccc(C(=O)O)cc1C(=O)O,-4.68
22,N#CNC(=N)CSc1nc(-c2ccccc2)cc(C(F)(F)F)c1C#N,0.0719
23,N#CC1CC(c2ccc(Cl)cc2)=NN1c1ccccc1 (centres unmarked),6.52
24,O=[N+]([O-])c1ccc(N2CCOCC2)nc1,7.98
25,COc1ccccc1C(=O)Nc1c2c(nc3c1CCC3)CCCC2,17.5
26,COc1ccc(/C(O)=C/c2nc3ccc(C(=O)N4CCN(C5CCCCC5)CC4)cc3nc2O)cc1,16.6

row,SMILES,% Inhibition @ 10 uM [%]
1,Cc1ccc(CNC(=O)CCS(=O)(=O)c2ccc(Br)s2)cc1,2.01
2,C=CCC(NCc1ccccc1)c1ccco1 (centres unmarked),-0.546
3,Cc1cccc(-c2noc(CN(C(=O)C(C)Oc3ccccc3)C(C)C)n2)c1 (centres unmarked),-5.26
4,CCC(C)Oc1ccc(C(=O)Nc2ccc(CN3CCOCC3)cc2)cc1 (centres unmarked),4.11
5,Cc1ccccc1Cn1c(C)c(CNCc2cccc(Cl)c2)c(C(=O)O)c1C,-2.14
6,CC(C)(C)N1CC(COc2ccccc2)OC1=O (centres unmarked),0.317
7,CCCC(=O)Nc1ccc(C(=O)Nc2ccccc2F)cc1,3.56
8,CSc1ccc(CCNCc2c(C(=O)O)c(C)n(Cc3cccc(Cl)c3)c2C)cc1,2.8
9,O=C(CNC(=S)N(Cc1ccccc1)Cc1ccccc1F)NCCCN1CCOCC1,-0.519
10,O=C(NC1(C(F)(F)F)NC(=O)N(Cc2ccco2)C1=O)c1ccccc1F (centres unmarked),0.475
11,CCOc1ccc(NC(=O)C2=C(C)NC(=O)NC2c2ccccc2Cl)cc1 (centres unmarked),2.98
12,O=C1NC(=O)/C(=C/C=C/c2ccccc2)S1,0.317
13,Cc1ccc(C2=NS(=O)(=O)N(C)C(C(=O)N3CCN(C(=O)C(C)(C)C)CC3)=C2)cc1,0.655
14,Cc1ccc2oc(=O)c3cc(C(=O)N4CCC(N5CCCCC5)CC4)sc3c2c1,-1.54
15,COc1ccccc1C1C(C#N)=C(N)Oc2cc(C)n(Cc3ccc4c(c3)OCO4)c(=O)c21 (centres unmarked),2.31
16,CCOC(=O)c1cc(S(=O)(=O)N2CCc3cc(OC)c(OC)cc3C2C)cn1C (centres unmarked),-2.84
17,COc1ccc2c(Sc3ccccc3)c(C(=O)NCCN3CCN(C)CC3)[nH]c2c1,1.61
18,COc1ccccc1C1C2=C(O)CCCC2=Nc2nc3ccccc3n21 (centres unmarked),-5.19
19,CC1(C)Cc2c(sc3ncn4nc(CO/N=C/c5ccccc5)nc4c23)C(C)(C)N1,-2.26
20,CCCNC(=O)CN(c1cccc(C(F)(F)F)c1)S(=O)(=O)c1ccc(C)cc1,-9.02
21,COc1cccc(-c2ccc(C#N)c(SCC(=O)NC3CCCC3)n2)c1,5.54
22,CCOc1cc(/C=C2\C(=N)N3N=C(N4CCOCC4)SC3=NC2=O)ccc1O,-7.18
23,CSc1cccc(NC(=O)/C(=C/c2ccc(C)o2)NC(=O)c2ccccc2)c1,0.851
24,O=C(Cc1cccc2ccccc12)Nc1cccnc1,-6.39
25,COc1ccccc1CC(=O)Nc1ccc(CC#N)cc1,3.01
26,Cc1ccc(S(=O)(=O)Nn2cnnc2)cc1,-2.77

row,SMILES,% Inhibition @ 10 uM [%]
1,CCCCNC(=O)c1cc([N+](=O)[O-])[nH]n1,3.48
2,NC(=O)C1CCN(C2CC(=O)N(c3cccc(Cl)c3)C2=O)CC1 (centres unmarked),2.08
3,c1ccc2nc(NCc3ccncc3)ccc2c1,-1.37
4,O=C(Nc1nccs1)c1cccc(S(=O)(=O)N2CCCCC2)c1,4.35
5,O=C(/C=C/c1ccco1)Nc1cnc2ccccc2c1,-5.03
6,Cc1ccc(Cn2c(C)c(CNCCc3cccs3)c(C(=O)O)c2C)cc1,-5.49
7,CCOc1cccc(/C=C2/NC(=O)N(Cc3ccccc3F)C2=O)c1O,1.83
8,COc1ccc(C(c2c(O)n(C)c(SC)nc2=O)c2c(O)n(C)c(SC)nc2=O)cc1O,-4.03
9,CC1CCC(N2CCC(O)(c3ccc(Br)cc3)CC2)CC1 (centres unmarked),-5.44
10,O=C(CN1C(=O)c2ccccc2S1(=O)=O)Nc1ccc(C2[C@H]3C[C@@H]4C[C@@H](C[C@H]2C4)C3)cc1 (some centres unmarked),2.65
11,O=C1OC(c2cncc(Br)c2)=N/C1=C/C=C/c1ccccc1,-3.46
12,CCCn1c(NCc2sccc2C)nc2ccccc21,-3.52
13,O=c1[nH]c(=S)[nH]c2scc(-c3ccccc3)c12,32.7
14,CCC(C)c1c(O)nc(SCc2ccccc2)nc1O (centres unmarked),16.9
15,Cc1ccc2n1CCN(c1nc(-c3ccc(Cl)cc3)cs1)C2C (centres unmarked),-4.49
16,CC(=O)OCC12COC(CN3CCCCC3)C(C(C)=CC1C)C2C (centres unmarked),3.32
17,Nc1c(C(=O)c2ccccc2)sc2nc(-c3cccnc3)ccc12,-10.4
18,CC1CCN(C(=O)c2cc3ccc4cccnc4c3[nH]2)CC1,7.61
19,CCO/C(O)=C1/C(C)=Nc2nc(SC)nn2C1c1ccc(C(=O)OC)cc1 (centres unmarked),2.97
20,COc1ccc(OC)c(CNS(=O)(=O)c2cc(-c3onc(C)c3C)ccc2OC)c1,1.56
21,CCOc1ccc(NC(=O)CN(c2ccc(F)cc2)S(=O)(=O)c2ccccc2)cc1,-7.97
22,O=C(Cc1ccc(-c2ccccc2)cc1)NCc1nc(-c2ccccc2)no1,0.486
23,CCOC(=O)N1CCN(C2CCCC(C)C2)CC1 (centres unmarked),-3.6
24,COc1ccc(C2C(C#N)=C(N)Oc3[nH]nc(C45CC6CC(CC(C6)C4)C5)c32)c(OC)c1OC (centres unmarked),6.27
25,Oc1[nH]c2ccccc2c1C1=NCCCCC1,16.1
26,CCc1sc(-c2cc3cccc(OC)c3oc2=O)nc1-c1ccccc1,-0.112

row,SMILES,% Inhibition @ 10 uM [%]
1,CCN1CCN(C(=O)c2cc3c(s2)-c2ccc(Cl)cc2SC3)CC1,0.953
2,COc1ccc(NC(=O)c2ccccc2NC(N)=O)cc1,-0.891
3,O=S(=O)(c1ccc2c(c1)OCCO2)N1CCNCC1,-2.4
4,O=C(O)C1CCN(c2nc3ccccc3o2)CC1,-0.256
5,CCOC(=O)N1CCC(NCc2cccnc2)CC1,1.88
6,CCOc1ccc2nc(N3CCC(C(=O)NCCCN4CCOCC4)CC3)sc2c1,-7.1
7,CCN(CC)S(=O)(=O)c1ccc(NC(=O)c2ccc(-c3ccccc3)cc2)cc1,-4.82
8,Cc1c(C(=O)NCCC(C)C)sc2nc3n(c(=O)c12)CCCCC3,1.51
9,CN1CCN(C(=O)CCCOc2ccc(Cl)cc2Cl)CC1,-3.56
10,Cn1nc(C(=O)NCCc2ccccc2)c2c1-c1ccccc1SC2,-0.495
11,Cc1ccc(C(=O)Nc2ccc(-c3nc4cc(Cl)ccc4o3)cc2)cc1[N+](=O)[O-],-3.79
12,COCCNC(=O)C1CCCN(c2cnnc3c(Cl)cccc23)C1 (centres unmarked),1.08
13,Cc1cccc(OCCCCN2CCOCC2)c1,-0.546
14,CCOC(=O)c1cnc2ccc(OC)cc2c1NCCN1CCOCC1,-8.87
15,CC1CCN(C(=O)COc2ccc(S(=O)(=O)NC(C)(C)C)cc2)CC1,3.29
16,COc1cc(OC)c(OC)cc1CN1CCN(Cc2ccccc2C)CC1,0.661
17,O=C(c1ccc2c(Cl)c3c(nc2c1)CCC3)N1CCN(C2CCCCC2)CC1,-5.76
18,O=C(COc1ccccc1Cl)NC1CCCCCC1,2.33
19,CCCCSc1nnc(NC(=O)c2nc(SCC)ncc2Cl)s1,2.19
20,COc1ccc(C(=O)Nc2ccc(C)c(C)c2)cc1,-3.04
21,O=C(NCCN1CCN(C(=O)c2ccc(F)cc2)CC1)c1ccc(F)cc1,-4.02
22,FC(F)(F)c1nc(N2CCCCC2)nc2c1CCCCC2,-1.73
23,COc1cc(CN2CC(C)OC(C)C2)cc(OC)c1 (centres unmarked),-6.12
